Results from patent publication US11178870B2 (priority 2017, dated 2021).

How the values were obtained:
Magnaporthe grisea = format: in vivo; conditions: Table 7, Test A
Phytophthora infestans = format: in vivo; conditions: Table 7, Test F
[1] = tested on: Colletotrichum orbiculare; conditions: 250 ppm sprayed (2.5 ml/pot) before inoculation; assessed 6 to 10 days after inoculation

| SMILES | control value, Test A (blast on rice) (Magnaporthe grisea) | control value, Test F (late blight on tomato) (Phytophthora infestans) | control value, Test H (anthracnose on cucumber) [1] |
| --- | --- | --- | --- |
| CCOc1cc(F)c(-c2c(-n3cc(F)cn3)cc(Cl)c(=O)n2CC)c(F)c1 [Compound 316] | H (H shows the control value more than 50%) | L (L shows the control value of 50% or less) | H (H shows the control value more than 50%) |
| CCn1c(-c2ccc(F)cc2Br)c(-n2cc(F)cn2)ccc1=O [Compound 326] | H (H shows the control value more than 50%) | L (L shows the control value of 50% or less) | H (H shows the control value more than 50%) |
| CCn1c(-c2ccc(F)cc2C)c(-n2cc(C)cn2)cc(Br)c1=O [Compound 370] | H (H shows the control value more than 50%) | L (L shows the control value of 50% or less) | L (L shows the control value of 50% or less) |
| CCn1c(-c2ccc(F)cc2Br)c(-n2cc(F)cn2)cc(Br)c1=O [Compound 353] | H (H shows the control value more than 50%) | L (L shows the control value of 50% or less) | H (H shows the control value more than 50%) |
| Cc1cnn(-c2ccc(=O)n(CC(F)F)c2-c2ccc(F)cc2Cl)c1 [Compound 342] | H (H shows the control value more than 50%) | L (L shows the control value of 50% or less) | H (H shows the control value more than 50%) |
